The whole screen tested about 52,000 compounds, of which about 4,300 (8.3%) were called active. Cut-off read from the data, not from the text of the source: active = survival mostly below about 52% (no sharp cut-off); inactive = mostly above about 56%. This is one part of the list.
Each molecule was assayed on DeltatarO mutant (assay: S. aureus survival, RN4220 and DeltatarO strains – OD600, teichoic acid synthesis inhibitors, primary screen (AID 463173)). Details: S. aureus RN4220 wild type/DeltatarO growth, OD600, 18 h, hits give low values, screened at 18.75 µg/mL (by protocol).

| SMILES | survival |
| --- | --- |
| Cc1ccc(Cl)cc1N1CCN(C(=O)c2ccc3nc(N4CCC(C)CC4)sc3c2)CC1 | active: 29% |
| CCOC(=O)c1cc(-c2ccccc2)n(CCC(=O)Nc2nc3c(C)cccc3s2)c1C | inactive: 79% |
| COc1cccc(NC(=O)c2nnn(Cc3ccc(OC)c(Br)c3)c2N)c1 | inactive: 57% |
| CCc1nn2c(=O)cc(COC(=O)C3CCCCC3)nc2s1 | inactive: 84% |
| CCn1cc(C(=O)NCc2ccccc2OC)c(=O)c2cc(S(=O)(=O)N3CCCCCC3)ccc21 | inactive: 60% |
| CCOC(=O)c1cc(-c2ccccc2)n(CCCC(=O)Nc2ccc(C)cc2Cl)c1C | inactive: 74% |
| Cc1cc(C)n(-c2nc(C)c(C)c(=O)n2CC(=O)Nc2ccc(Cl)c(Cl)c2)n1 | inactive: 82% |
| COc1ccc(NC(=O)CCNS(=O)(=O)c2ccc3c(c2)CCN3C(=O)C2CC2)cc1Cl | inactive: 67% |
| COc1ccc(-c2nnc(SCC(=O)Nc3cccc(Cl)c3C)nc2-c2ccc(OC)cc2)cc1 | inactive: 89% |
| COc1ccc(-c2cc(OC(=O)c3cccc(C)c3)c3c(C)oc(C)c3c(=O)c2)cc1 | inactive: 122% |
| Cc1cc(C)c(NC(=O)Cn2nnc(C(=O)Nc3ccc(F)cc3F)c2N)c(C)c1 | inactive: 81% |
| CC(=O)Nc1ccc(NC(=O)c2c(C)nn(-c3ccccc3)c2-n2cccc2)cc1 | inactive: 84% |
| Cc1ccc(CNC(=O)c2ccc3c(c2)nc2n3CCCC2)cc1 | inactive: 86% |
| CCc1ccc(NC(=O)c2c(C(=O)Nc3ccccc3)sc3nc(C)cc(=O)n23)cc1 | inactive: 96% |
| CN1C(=O)Cc2cc(S(=O)(=O)CCC(=O)N3CCN(c4cccc(Cl)c4)CC3)ccc21 | inactive: 62% |
| Cc1ccsc1CCN1C(=O)N(c2ccc(F)cc2)C(=O)C1CC(=O)Nc1ccccc1 (centres undefined) | inactive: 60% |
| COc1cc(-c2noc(C3CC(=O)N(c4cc(C)ccc4C)C3)n2)cc(OC)c1OC (centres undefined) | inactive: 69% |
| COc1cccc(NS(=O)(=O)c2cc3c4c(c2)C(C)C(=O)N4CCC3)c1 (centres undefined) | inactive: 98% |
| CCOc1ccc2nc3c(cc2c1)CN(CCO)C(=Nc1cccc(OC)c1)S3 | active: 47% |
| COc1ccc(-n2nnnc2SCC(=O)c2ccc3c(c2)OCCO3)c(OC)c1 | inactive: 76% |
| COc1cccc(-c2cc(C(=O)N3CCN(c4ccc(F)cc4)CC3)no2)c1 | active: 44% |
| CCOc1ccc(NC(=O)Cn2cnc3c(oc4ccccc43)c2=O)cc1 | inactive: 80% |
| CCc1ccc(NC(=O)C2CCCN(S(=O)(=O)c3cccc4nonc34)C2)cc1 (centres undefined) | inactive: 83% |
| COC(=O)c1c(O)c2c([nH]c1=O)CCCC2 | inactive: 68% |

Reference: PubChem BioAssay AID463173 (ICCB-Longwood Screening Facility, Harvard Medical School, 2010)
